Measured values from the supplement of paper PMC10126150.
Values marked as one replicate rest on one cluster of the flow cell; about a third of the high ones do not repeat.

These sequences were tested on ATP (assay: switch fluorescence ratio, 500 uM ATP over buffer (Cy3 cluster intensity, sum of 5 cycles each) (fold (ratio)); higher = stronger signal-on switching upon ATP binding; sequences stand for … in TCGTCGGCAGCGTCAGATGTGTATAAGAGACAGTTTTTTTTTTTTTTTTTTTTTTTTT…TC). Settings: aptamer strand: ATP DNA aptamer (quencher-CACCTGGGGGAGTATTGCGGAGGAAGG + anchor), 100 nM annealed; ATP concentration: 500 uM; one replicate.
In short: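 Switching-strand clusters labelled with Cy3 on a modified Illumina MiSeq flow-cell were annealed to 100 nM quencher-labelled ATP aptamer, imaged in selection buffer, and re-imaged after 15 min with 500 uM ATP at 22 °C. This was done over five cycles with NaOH stripping and re-annealing in between. The fluorescence ratio is summed target-cycle over summed buffer-cycle Cy3 intensity per cluster, averaged per switch-domain sequence, excluding clusters outside 100-1000 RFU.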
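Further: ATP exposure 15 min at 22 °C before imaging.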

| Sequence | switch fluorescence ratio |
| --- | --- |
| GAAATGGTGT | 1 |
| GAAATGTCTT | 0.957 |
| GAAATTAAAT | 0.99 |
| GAAATTACGA | 1.08 |
| GAAATTCTGT | 0.979 |
| GAAATTGAGA | 0.976 |
| GAAATTGCGT | 0.98 |
| GAACACTTCA | 1.14 |
| GAACAGGCGC | 1.04 |
| GAACATCGTT | 0.992 |
| GAACCCATCT | 1.01 |
| GAACCCGAGC | 1.07 |
| GAACCGATAT | 1.03 |
| GAACCGTAAT | 1.53 |
| GAACGAGAAC | 1.06 |
| GAACGCATT | 2.81 |
| GAACGCCTCA | 1.09 |
| GAACGCCTG | 0.998 |
| GAACGTATTC | 1.08 |
| GAACGTTTAC | 1.79 |
| GAACTATTTG | 1 |
| GAACTCCTTG | 1.01 |
| GAACTGCAAT | 1.75 |
| GAACTGGTCA | 1 |
| GAACTTCTTA | 0.999 |
| GAAGAAAGTG | 0.912 |

| Sequence | switch fluorescence ratio |
| --- | --- |
| GAAGAAATGA | 1 |
| GAAGAAATTG | 1.01 |
| GAAGAAGGGC | 0.978 |
| GAAGATGGAA | 1.01 |
| GAAGCCCCAG | 1.02 |
| GAAGGATTGC | 0.997 |
| GAAGGCATCT | 1.06 |
| GAAGGCCAAC | 1.03 |
| GAAGGG | 0.942 |
| GAAGGGCG | 0.996 |
| GAAGGGTCAT | 1.02 |
| GAAGGGTGA | 1.01 |
| GAAGGTAGTG | 0.95 |
| GAAGGTTCGG | 0.983 |
| GAAGTAAATT | 0.986 |
| GAAGTCACGA | 1.08 |
| GAAGTCGTGG | 0.978 |
| GAAGTCTACA | 1.01 |
| GAAGTGTGGA | 0.996 |
| GAAGTTGAAC | 0.979 |
| GAAGTTGTGG | 0.977 |
| GAAGTTTGT | 1 |
| GAATAAGAAT | 1.04 |
| GAATACGCTT | 1.57 |
| GAATATGGGA | 0.973 |
| GAATATGTCA | 0.946 |

| Sequence | switch fluorescence ratio |
| --- | --- |
| GAATATGTGA | 0.994 |
| GAATCAGGAA | 1 |
| GAATCCCAGG | 4.03 |
| GAATCCTAG | 0.961 |
| GAATCTATCC | 1.11 |
| GAATCTCGTA | 1.02 |
| GAATCTTGGT | 1.01 |
| GAATGAAAGA | 1.06 |
| GAATGAGTAT | 0.981 |
| GAATGCGTGC | 1.05 |
| GAATGGTTGG | 0.998 |
| GAATGTAACG | 0.972 |
| GAATGTAAGA | 0.966 |
| GAATGTCCCT | 1.02 |
| GAATGTCTCC | 1.02 |
| GAATGTGCTG | 1.03 |
| GAATGTGGC | 1.05 |
| GAATGTTGAT | 1.03 |
| GAATTAAGTA | 0.988 |
| GAATTAGAGC | 0.917 |
| GAATTAGAGG | 0.982 |
| GAATTCAGGC | 0.954 |
| GAATTCCCAG | 1.01 |
| GAATTCTACC | 0.993 |
| GAATTCTGCA | 1.04 |
| GAATTGCACG | 1.12 |

| Sequence | switch fluorescence ratio |
| --- | --- |
| GAATTGCGCA | 0.995 |
| GAATTGCGGT | 0.961 |
| GAATTGGCCG | 0.97 |
| GAATTGGCGC | 0.999 |
| GAATTTCCTC | 1.25 |
| GAATTTTCTG | 0.965 |
| GACAACGCGG | 1.06 |
| GACAACTAAG | 1 |
| GACAATACCC | 1.11 |
| GACAATATAC | 1.39 |
| GACACATCGA | 1.04 |
| GACACTA | 1.26 |
| GACACTGACT | 1.3 |
| GACACTGCGA | 1.52 |
| GACACTGTGT | 1.01 |
| GACACTTATA | 1.1 |
| GACACTTGTC | 1.03 |
| GACAGAAGAA | 1.01 |
| GACAGATGCC | 1.05 |
| GACAGCCATT | 1.1 |
| GACAGCTTTA | 1.05 |
| GACAGGGGGT | 1 |
| GACATACCGG | 1.18 |
| GACATAGAT | 1.02 |
| GACATAGGAA | 2.23 |
| GACATATTAC | 1.17 |

| Sequence | switch fluorescence ratio |
| --- | --- |
| GACATCGAAG | 0.971 |
| GACATCGCGG | 1.01 |
| GACATCTGAC | 1.04 |
| GACATGGAGT | 0.976 |
| GACATTGTAT | 0.966 |
| GACATTTGCG | 1.02 |
| GACCAAGTAC | 1.78 |
| GACCACTCCT | 1.15 |
| GACCCGGCGA | 1.1 |
| GACCCTAGAC | 1.11 |
| GACCGAGATT | 1.03 |
| GACCGATTAG | 1.04 |
| GACCGTACCT | 1.71 |
| GACCTAACTG | 1.04 |
| GACCTAAGAA | 1.04 |
| GACCTAAGTG | 0.97 |
| GACCTGCCTG | 1.15 |
| GACGAAGTGC | 1.79 |
| GACGAATCGT | 0.967 |
| GACGAATCTT | 0.975 |
| GACGAATGGC | 1.1 |
| GACGACCGAT | 1.81 |
| GACGAGCTAG | 1.01 |
| GACGAGCTGC | 1.17 |
| GACGATCC | 0.992 |
| GACGCACAA | 3.93 |

| Sequence | switch fluorescence ratio |
| --- | --- |
| GACGCAGGTA | 1.49 |
| GACGCCACGA | 1.74 |
| GACGCCCCAG | 1.02 |
| GACGCCGTAG | 1 |
| GACGCGAGTG | 1.12 |
| GACGCTGAAG | 1.02 |
| GACGCTGATG | 1.01 |
| GACGGAAATG | 1.06 |
| GACGGAATGA | 2.76 |
| GACGGAGTTT | 1.04 |
| GACGGATTAC | 3.36 |
| GACGGCCATG | 1.03 |
| GACGGGGAGC | 1.08 |
| GACGGGTAA | 1.01 |
| GACGGGTGCA | 1.1 |
| GACGGTAGC | 1.06 |
| GACGGTCCGT | 1 |
| GACGGTCGGA | 1.05 |
| GACGGTCTTC | 1.04 |
| GACGGTGC | 1.91 |
| GACGGTTG | 0.927 |
| GACGTAAGAG | 1.38 |
| GACGTAAGAT | 1.74 |
| GACGTAATC | 3.95 |
| GACGTACGGT | 1.53 |
| GACGTACTTT | 1.61 |

| Sequence | switch fluorescence ratio |
| --- | --- |
| GACGTCATAA | 1 |
| GACGTGTAGG | 1.05 |
| GACGTTTGCA | 1.05 |
| GACTAAGATC | 1.03 |
| GACTACGAGT | 1.06 |
| GACTACGGAA | 4.86 |
| GACTAGTGCT | 1.01 |
| GACTCCCGCT | 2.14 |
| GACTCGCACC | 2.92 |
| GACTCGCGAT | 1.63 |
| GACTCGTAAC | 1.33 |
| GACTCTCAGC | 1.05 |
| GACTCTCTTT | 0.973 |
| GACTCTGCA | 4.04 |
| GACTGAATAG | 1.02 |
| GACTGGAGAG | 0.986 |
| GACTGGAGCT | 1.16 |
| GACTTAAC | 1.08 |
| GACTTAATTA | 1.02 |
| GACTTATGGA | 1.01 |
| GACTTCACGT | 1.23 |
| GACTTCTACA | 1.13 |
| GACTTGGACC | 1.05 |
| GACTTTCAAC | 1.02 |
| GACTTTGCCC | 1.02 |
| GACTTTGTTA | 0.976 |

| Sequence | switch fluorescence ratio |
| --- | --- |
| GAGAAAACGC | 0.995 |
| GAGAAAAGTC | 1 |
| GAGAACTCGC | 0.875 |
| GAGAACTTGC | 1.04 |
| GAGAAGCTTT | 0.991 |
| GAGAAGGGT | 0.975 |
| GAGAAGTCAT | 0.989 |
| GAGAATATGC | 1.05 |
| GAGAATTGTG | 1 |
| GAGACACCT | 1.25 |
| GAGACGATTT | 1.04 |
| GAGACGGCGT | 0.981 |
| GAGAGAAGCC | 1 |
| GAGAGACGTT | 1.02 |
| GAGAGATAAC | 0.942 |
| GAGAGATACC | 1.05 |
| GAGAGCAA | 1.75 |
| GAGAGCTGCT | 0.956 |
| GAGAGGACGT | 1.09 |
